# The other results are listed elsewhere or left out.
# B1: PhoQ; a variant is named by its letters at X, in order, P23837 (parent)
# chain: MKKLLRLFFPLSLRVRFLLATAAVVLVLSLAYGMVALIGYSVSFDKTTFRLLRGESNLFYTLAKWENNKLHVELPENIDKQSPTMTLIYDENGQLLWAQRDVPWLMKMIQPDWLKSNGFHEIEADVNDTSLLLSGDHSIQQQLQEVREDDDDAEMTHSVAVNVYPATSRMPKLTIVVVDTIPVELKSSYMVWSWFIYVLSANLLLVIPLLWVAAWWSLRPIEALAKEVRELEEHNRELLNPATTRELTSLVRNLNRLLKSERERYDKYRTTLTDLTHSLKTPLXXLQXXLRSLRSEKMSVSDAEPVMLEQISRISQQIGYYLHRASMRGGTLLSRELHPVAPLLDNLTSALNKVYQRKGVNISLDISPEISFVGEQNDFVEVMGNVLDNACKYCLEFVEISARQTDEHLYIVVEDDGPGIPLSKREVIFDRGQRVDTLRPGQGVGLAVAREITEQYEGKIVAGESMLGGARMEVIFGRQHSAPKDE
# Variants of: B1
# Assay: enrichment ratio after two sorts for PhoP signalling (ratio (wild type AVST 3.29)); higher = more functional
# Conditions: with PhoP (E. coli)
row,Variant,enrichment ratio
1,FLLE,0.647
2,GMWI,≤ 0.25
3,VSRW,≤ 0.25
4,LYYP,≤ 0.25
5,QWLV,≤ 0.25
6,SWAD,≤ 0.25
7,KPLV,≤ 0.25
8,GSRH,≤ 0.25
9,PTSV,≤ 0.25
10,ITFA,≤ 0.25
11,RQEV,≤ 0.25
12,RACG,≤ 0.25
13,NIRV,≤ 0.25
14,YVFT,≤ 0.25
15,WMCK,≤ 0.25
16,TSRH,≤ 0.25
17,LWDI,≤ 0.25
18,QNMT,≤ 0.25
19,HVCI,≤ 0.25
20,TPCY,≤ 0.25
21,YKNT,≤ 0.25
22,AGKD,≤ 0.25
23,WVYG,≤ 0.25
24,IALS,0.797
25,QEFT,5.39
26,PVEL,≤ 0.25

row,Variant,enrichment ratio
1,QKRV,≤ 0.25
2,IGGT,≤ 0.25
3,CFHG,≤ 0.25
4,RGRC,≤ 0.25
5,HASK,≤ 0.25
6,IWGW,≤ 0.25
7,FGDI,≤ 0.25
8,TLTY,≤ 0.25
9,RNEC,≤ 0.25
10,VKCC,≤ 0.25
11,QILE,≤ 0.25
12,WCYI,≤ 0.25
13,ASCE,4.22
14,WLRR,≤ 0.25
15,EAMQ,≤ 0.25
16,MNMR,≤ 0.25
17,AFVK,≤ 0.25
18,WSHY,≤ 0.25
19,TVAT,16.8
20,AYPT,≤ 0.25
21,SWLH,≤ 0.25
22,VWQS,≤ 0.25
23,MCLM,6.74
24,CRCP,≤ 0.25
25,KQTP,≤ 0.25
26,IHAK,≤ 0.25

row,Variant,enrichment ratio
1,PHWE,≤ 0.25
2,AVLC,8.34
3,HFNF,≤ 0.25
4,YKAI,≤ 0.25
5,IAPI,≤ 0.25
6,GFYH,≤ 0.25
7,SLDW,≤ 0.25
8,VYRK,≤ 0.25
9,TPVC,≤ 0.25
10,GRQW,≤ 0.25
11,QLIP,≤ 0.25
12,KLTQ,≤ 0.25
13,QLEK,≤ 0.25
14,MVVP,≤ 0.25
15,CPCP,≤ 0.25
16,PERK,≤ 0.25
17,VPFV,≤ 0.25
18,YAHP,≤ 0.25
19,IEIG,≤ 0.25
20,LIFL,≤ 0.25
21,MLTA,≤ 0.25
22,PEIV,≤ 0.25
23,MPGF,≤ 0.25
24,WYLH,≤ 0.25
25,GYCR,≤ 0.25
26,FWYM,≤ 0.25

row,Variant,enrichment ratio
1,KIAY,≤ 0.25
2,GCDH,≤ 0.25
3,NLMR,≤ 0.25
4,WPRK,≤ 0.25
5,KTFD,≤ 0.25
6,ADQD,≤ 0.25
7,VGPQ,≤ 0.25
8,YAAG,≤ 0.25
9,WVPP,≤ 0.25
10,RYWP,≤ 0.25
11,WDDH,≤ 0.25
12,WKNC,≤ 0.25
13,QCAW,≤ 0.25
14,FWRK,≤ 0.25
15,TNPK,≤ 0.25
16,AAKL,≤ 0.25
17,NYPN,≤ 0.25
18,VPEY,≤ 0.25
19,DMQT,≤ 0.25
20,KCRK,≤ 0.25
21,IKTS,≤ 0.25
22,KSHE,≤ 0.25
23,QNQF,≤ 0.25
24,QRGY,≤ 0.25
25,RYDV,≤ 0.25
26,SCDF,≤ 0.25

row,Variant,enrichment ratio
1,KCRA,≤ 0.25
2,ACWF,≤ 0.25
3,IPDI,≤ 0.25
4,RMTD,≤ 0.25
5,EKYW,≤ 0.25
6,WPNR,≤ 0.25
7,KFAG,≤ 0.25
8,KSDL,≤ 0.25
9,HWAD,≤ 0.25
10,YMFW,≤ 0.25
11,SLKQ,≤ 0.25
12,SYIL,≤ 0.25
13,NYTR,≤ 0.25
14,KTNF,≤ 0.25
15,PYAY,≤ 0.25
16,MMMV,≤ 0.25
17,SCFM,0.373
18,RVYT,≤ 0.25
19,ENSD,≤ 0.25
20,FRME,≤ 0.25
21,GVPT,≤ 0.25
22,HMMM,≤ 0.25
23,ESPW,≤ 0.25
24,THNQ,30.9
25,IFYE,≤ 0.25
26,HRVN,≤ 0.25

row,Variant,enrichment ratio
1,MSAS,12.6
2,KNQL,≤ 0.25
3,RFST,≤ 0.25
4,KDHI,≤ 0.25
5,IVNG,≤ 0.25
6,NKVF,≤ 0.25
7,VDNE,≤ 0.25
8,QMAC,≤ 0.25
9,GYDN,≤ 0.25
10,MYDV,≤ 0.25
11,QMCM,≤ 0.25
12,LWHP,≤ 0.25
13,NFNE,≤ 0.25
14,HYKH,≤ 0.25
15,PSGP,≤ 0.25
16,TEHF,3.55
17,DQAK,≤ 0.25
18,ANPY,≤ 0.25
19,VGTI,≤ 0.25
20,WKRN,≤ 0.25
21,SIEK,≤ 0.25
22,HIWQ,≤ 0.25
23,AHFS,≤ 0.25

# Source: a collection of fitness landscapes (doi:10.1126/science.1257360)
